{"source": "paper PMC12136788", "binders": {"B1": {"name": "chr4:108167797:108167798:+_ENSMUSG00000034610_ENSMUST00000043368|mus_mus|motif|central (ssRNA)", "RNA": "GGGAGUUCUACAGUCCGACGAUCCUCCACAAUGUCCUGGCGGAUUCUGAGGUCAUCAUCUGUUAUUCCUUGUUCUUUUGCGGACUCAACAACUGCAACACUUAAAGCAGCCAAGUGAGCAGAGGAAGGAGAUGGAAGAGACCGCAACAGAGGAUUGAGCAUCA"}, "B2": {"name": "chr2:48026839:48026840:+_ENSG00000116062_ENST00000540021|hu_hu|hu_hu_hu_mus_False|8_28 (ssRNA)", "RNA": "GGGAGUUCUACAGUCCGACGAUCAUAGUGAGCCACUAGCGUCCUAAAUCUGGAACAGUGGCGGUCAUCCGAAAACUGGCCGAUGAAAAACUUGCCCAGUGAAGUGUCAACAAAGCAAACACCAUACGCACGAGUAUGACCAGACAACAGAGGAUUGAGCAUCA"}, "B3": {"name": "chr17:60770872:60770873:+_ENSG00000011028_ENST00000303375|hu_hu|hu_hu_hu_mus_True|58_108 (ssRNA)", "RNA": "GGGAGUUCUACAGUCCGACGAUCUCUCUUUUCUUUUAAAAAAAAAGACAAACAAUAAUAGCACAUUUCGAGAAUCAUCAACUACAGUAGAGGGUCCGCUUUGAGUUUUUGUUCACAUCGUCCUGCACUGGGACACGGGGACUGCAACAGAGGAUUGAGCAUCA"}, "B4": {"name": "chr7:118215947:118215948:-_ENSMUSG00000005610_ENSMUST00000162415|mus_mus|motif|central (ssRNA)", "RNA": "GGGAGUUCUACAGUCCGACGAUCGGUCCUUGCAAUAGACUGCCUCUGCUUGAGAACUUAGGAUGUAAUUAUUGCAUGCUGCGGAUAUUCUAUCUAAACAUUAAGGAUACUCCUAAAGUAUUUGAUGGUAGACUAUGAUUAAGACAACAGAGGAUUGAGCAUCA"}, "B5": {"name": "59627756_59627876_917_CDS_ENSMUSG00000039585_ENSMUST00000128341|mouse|control|control (ssRNA)", "RNA": "GGGAGUUCUACAGUCCGACGAUCACAUAAAUCAUCAAAGUCUUUCUGUUGAGGCUGUGGAAGAAAACCCCGCUCCAUCAUCCUGCGGCGUUCUUCGGUUACCCGUAGCCAUGAUUGGAGGCUACCAUAAUGAAUUGACCCAUCCAACAGAGGAUUGAGCAUCA"}, "B6": {"name": "121724584_121728810_673_CDS_ENSMUSG00000060227_ENSMUST00000078752|mouse|control|control (ssRNA)", "RNA": "GGGAGUUCUACAGUCCGACGAUCUCCACACUGAAAACUCUCGUAUUCUAGCCGCUUGACAAGGUAGGUAUUAUUUUUCCUGUAGUCUUGAAGCUGAUCUUCCUGUCGAAGAAACUCCUGACGAAGCUCAGCCAGUUGCUCCUUCAACAGAGGAUUGAGCAUCA"}, "B7": {"name": "chr5:77301437:77301438:+_ENSMUSG00000036377_ENSMUST00000163347|mus_mus|FALSE|FALSE (ssRNA)", "RNA": "GGGAGUUCUACAGUCCGACGAUCGUUAGGAAUGAACACCAGUGUGGGAAACGUGCAGUGAAAUAUUAGUUGCUUACAAUAACAGUAAAAAAAAAAAGUUACAUUGAUUCUUAACAGUCUGAAGGUUCAGUAUAUAUAAUACUACAACAGAGGAUUGAGCAUCA"}, "B8": {"name": "chrX:45984076:45984077:+_ENSMUSG00000031105_ENSMUST00000114936|mus_mus|FALSE|FALSE (ssRNA)", "RNA": "GGGAGUUCUACAGUCCGACGAUCGAAACGAACAUCGAUACUCUGGCCUUGGACUUGCAGCCGUGUUUUAGUAAGAUCCACAGGGAAAGUGCCGAACUCGGCAACAAUAGAGGCAAGGCCGCCAUACACAAAAGGUUUCCAGUUCAACAGAGGAUUGAGCAUCA"}, "B9": {"name": "31364808_31365028_4386_CDS_ENSMUSG00000006307_ENSMUST00000006470|mouse|control|control (ssRNA)", "RNA": "GGGAGUUCUACAGUCCGACGAUCCAUCAAGAUGGCCACUACGUCUUCCAUGAAGCUGUGCACAGACUUAUAGAGACCUUCCUCAAAGCGCUUUCCCACAGCUUGUAAAUCACAGGGUCCUGGGUGGAGCUGCUUCCCAUCCUGCAACAGAGGAUUGAGCAUCA"}, "B10": {"name": "chr2:47387770:47387771:-_ENSG00000143933_ENST00000272298|hu_mus|hu_hu_hu_mus_True|8_108 (ssRNA)", "RNA": "GGGAGUUCUACAGUCCGACGAUCAAGGUUUUAGGACAAUGACAGUAAGAUAAGGGAAGAAAACAUGGAGGAAUGAAGUCCUAAUUACUAUACAUGCAUAUUUUUUGACAGUAGGGGGGGGGAACCUUACAGAUAAGAGUUACACAACAGAGGAUUGAGCAUCA"}, "B11": {"name": "113721642_113724089_572_CDS_ENSMUSG00000003316_ENSMUST00000169020|mouse|control|control (ssRNA)", "RNA": "GGGAGUUCUACAGUCCGACGAUCUCGAUGAUCCACCAAGCAGGAAACCAUGUAACCUUUUCCAACUGGUUCUUCCGCACAUUCUUUAAUCUCGGAAAUAGUUGACUUGCAAACCUCCCUGGCCACAGAUUCAAAUUUGGGAUCCAACAGAGGAUUGAGCAUCA"}, "B12": {"name": "chrX:140365796:140365797:-_ENSMUSG00000031285_ENSMUST00000033642|mus_mus|mus_mus_mus_hu_False|1_58 (ssRNA)", "RNA": "GGGAGUUCUACAGUCCGACGAUCCUUCUCAUUACUCAGUGCCUGCAAGGUUCUGGUUCGGUAGAAGCUACAGUGGGCACUAUGAGUGGGGCUAGGCAACCCAUUCAUCCGGGAGCCUCGCAUGUUCCUGGAUGUCUUGUCUCGCAACAGAGGAUUGAGCAUCA"}, "B13": {"name": "chr10:33190432:33190433:-_ENSG00000150093_ENST00000302278|hu_mus|hu_hu_hu_mus_True|28_58 (ssRNA)", "RNA": "GGGAGUUCUACAGUCCGACGAUCUACAUUUUCCAAACCUGCAUGUGAAUAAAACCCUGGCCACAGAGCCCCAAAACUACCUAACUGUGACUAAGAUGCUGCUGCUGUUGCAUUCAGGUUGCAAAAUCCGCCUGAGUAGGAUUCCAACAGAGGAUUGAGCAUCA"}, "B14": {"name": "44743879_44745525_506_CDS_ENSMUSG00000022668_ENSMUST00000162512|mouse|control|control (ssRNA)", "RNA": "GGGAGUUCUACAGUCCGACGAUCCAUGUCAACGAAGUCUUCGGGUGCUCUAUAGCCAUACCCUGGCAUGUCCACCAAUGUAAAAUGUUUUCCAACUUUGAAAAAAUUCAUUUUCUUUGUGUGCCCCGGUUUUUUUGAGAUCCUCAACAGAGGAUUGAGCAUCA"}, "B15": {"name": "chr4:107938606:107938607:-_ENSMUSG00000034636_ENSMUST00000043616|mus_hu|motif|central (ssRNA)", "RNA": "GGGAGUUCUACAGUCCGACGAUCAACAUCCAGAGAAACAAGGUUAGGUAGGAUGUCUUUUUGUUCUAGUAAGCGAAGAGCGGUGUCUGAUGUAAACUGUUUAUCAUCUGAGAUAUCAAGAUGAUUCAGAUGUUUGAGUUCCCGCAACAGAGGAUUGAGCAUCA"}, "B16": {"name": "chr2:217001844:217001845:+_ENSG00000079246_ENST00000392132|hu_hu|hu_hu_hu_mus_False|38_78 (ssRNA)", "RNA": "GGGAGUUCUACAGUCCGACGAUCACCAACUUGAGGAUUAGAUCUUUUGUCAUAAGCAUAUCGAACUAUGGCGACCAUGUUUAACUCAUCCAAAGCAUGAAUCAGGGAGGAAAGGGCAACAGCUGCCGCCUCAUCAUCCUUUGCCAACAGAGGAUUGAGCAUCA"}, "B17": {"name": "chr5:64648305:64648306:+_ENSMUSG00000029174_ENSMUST00000119756|mus_mus|motif|central (ssRNA)", "RNA": "GGGAGUUCUACAGUCCGACGAUCGGGCUGAACCACAUUGUGCCCACCGAUGAGGUGGUUCUCUAUGUCAUUGUCAAAGGAGCGGAAGGUGCUACUGCGGAGGCUAGCGUCCUGGAACUCCUUCCUGAAGGCCAGCGAGCGCAGCAACAGAGGAUUGAGCAUCA"}, "B18": {"name": "chr10:28884852:28884853:+_ENSG00000095787_ENST00000354911|hu_mus|motif|central (ssRNA)", "RNA": "GGGAGUUCUACAGUCCGACGAUCAGAUGCUCCAUUAGCAUCAAAUGAUUUCUUUGGCUGGUGAUCAGACUGAAGCGUAAAUGGACGGGAAGGAACAGUGCUUGGGGUAGCGGUUGGAUGAACCACUGGUUUGAUGGGGUGCUGCAACAGAGGAUUGAGCAUCA"}, "B19": {"name": "chr11:119660697:119660698:+_ENSMUSG00000025583_ENSMUST00000147781|mus_mus|motif|central (ssRNA)", "RNA": "GGGAGUUCUACAGUCCGACGAUCGCUUACUGGGGUGCAGUUAUAUGACCUCAUGAUUCUUUCUGCCAAUAAAAAAUUUCGGAACAAACUUGCCACGAGCAGGUCCUGUCGGAAAAGCUUUUGGAAGAGAUCCCGAGGGAGCACCAACAGAGGAUUGAGCAUCA"}, "B20": {"name": "chr11:118894041:118894042:+_ENSG00000196655_ENST00000359005|hu_hu|motif|central (ssRNA)", "RNA": "GGGAGUUCUACAGUCCGACGAUCAGGUUCAGCCUAUGACCCAGGUCCAAAAGUUCCAGCCUUCUCUGCCACCUCCAGAGCGGGCUUCAGGUUCUGGUCAAAGAGCUCACACCUGAUAGGCAUUUCUGUCAGUGUCUGGUAGCACAACAGAGGAUUGAGCAUCA"}, "B21": {"name": "chr1:196632501:196632502:+_ENSMUSG00000026640_ENSMUST00000027952|mus_mus|motif|central (ssRNA)", "RNA": "GGGAGUUCUACAGUCCGACGAUCGACCCGGGACCGGAGGCUGUCUGGGCUGCCUGUGUACCUGAAGGAAGAGUCAUAUCUGCGGAUGGAUGUCCGAGAGAUGCUGGCAGAGGCAGGGAUGUUGUAGGAGGAGGUCUGCUUAGGCAACAGAGGAUUGAGCAUCA"}, "B22": {"name": "chr9:95013113:95013114:-_ENSG00000196305_ENST00000443024|hu_hu|hu_hu_hu_mus_False|1_1 (ssRNA)", "RNA": "GGGAGUUCUACAGUCCGACGAUCCUCAGUCAGAAAGGGCGUGUAAGGGGCCAUCAGUCUGCACAGAGAAAGCAGGACACUGAACAGUGUCUCCAGAGCCAUGACACAGUCUUCCACCCCACUCUCACCCUUUAACCUUCUGCGCAACAGAGGAUUGAGCAUCA"}}, "note": "The other results are listed elsewhere or left out.", "data": [{"molecular_target": "T1, UNK ZnF1-3 (human, UniProt Q9C0B0 31-174)", "T1 sequence": "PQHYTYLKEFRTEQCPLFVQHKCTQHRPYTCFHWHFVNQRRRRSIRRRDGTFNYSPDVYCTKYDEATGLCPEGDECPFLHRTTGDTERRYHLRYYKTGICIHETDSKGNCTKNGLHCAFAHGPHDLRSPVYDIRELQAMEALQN", "test": "nsRBNS (natural sequence RNA bind-n-seq); RBNS binding buffer (assumed for nsRBNS): 25 mM Tris pH 7.5, 150 mM KCl, 3 mM MgCl2, 0.01% Triton X-100, 500 ug/ml BSA, 20 U/ml SUPERase-In, 4 C; UNK is unkempt and MSI1 is Musashi-1; names of the RNAs are library labels; protein concentration not given here; high values mean tight binding", "units": {"binding signal": "enrichment R"}, "values": [{"binder": "B1", "binding signal": 1.43}, {"binder": "B2", "binding signal": 1.38}, {"binder": "B3", "binding signal": 1.11}, {"binder": "B4", "binding signal": 0.966}, {"binder": "B5", "binding signal": 0.833}, {"binder": "B6", "binding signal": 0.624}, {"binder": "B7", "binding signal": 1.33}, {"binder": "B8", "binding signal": 1.08}, {"binder": "B9", "binding signal": 1.05}, {"binder": "B10", "binding signal": 2.51}, {"binder": "B11", "binding signal": 1.2}, {"binder": "B12", "binding signal": 0.457}, {"binder": "B13", "binding signal": 1.22}, {"binder": "B14", "binding signal": 0.789}, {"binder": "B15", "binding signal": 1.24}, {"binder": "B16", "binding signal": 1.6}, {"binder": "B17", "binding signal": 0.696}, {"binder": "B18", "binding signal": 1.14}, {"binder": "B19", "binding signal": 1.11}, {"binder": "B20", "binding signal": 0.745}, {"binder": "B21", "binding signal": 1.55}, {"binder": "B22", "binding signal": 0.964}]}]}
